Source: the supplement of paper PMC3334620
Whole data set: some 33,000 sequences, median “E-score (-0.5 to 0.5)” near -0.035, cut for the highest 2% near 0.35. Some of the results follow.

target: T1, Pdr3 (UniProt P33200); test: PBM E-score (8-mer binding enrichment) (E-score (-0.5 to 0.5)); higher = stronger / more preferred TF binding; most listed sequences are background and not binding sites; conditions: protein concentration: 200 nM; construct: GST-full length
T1 sequence: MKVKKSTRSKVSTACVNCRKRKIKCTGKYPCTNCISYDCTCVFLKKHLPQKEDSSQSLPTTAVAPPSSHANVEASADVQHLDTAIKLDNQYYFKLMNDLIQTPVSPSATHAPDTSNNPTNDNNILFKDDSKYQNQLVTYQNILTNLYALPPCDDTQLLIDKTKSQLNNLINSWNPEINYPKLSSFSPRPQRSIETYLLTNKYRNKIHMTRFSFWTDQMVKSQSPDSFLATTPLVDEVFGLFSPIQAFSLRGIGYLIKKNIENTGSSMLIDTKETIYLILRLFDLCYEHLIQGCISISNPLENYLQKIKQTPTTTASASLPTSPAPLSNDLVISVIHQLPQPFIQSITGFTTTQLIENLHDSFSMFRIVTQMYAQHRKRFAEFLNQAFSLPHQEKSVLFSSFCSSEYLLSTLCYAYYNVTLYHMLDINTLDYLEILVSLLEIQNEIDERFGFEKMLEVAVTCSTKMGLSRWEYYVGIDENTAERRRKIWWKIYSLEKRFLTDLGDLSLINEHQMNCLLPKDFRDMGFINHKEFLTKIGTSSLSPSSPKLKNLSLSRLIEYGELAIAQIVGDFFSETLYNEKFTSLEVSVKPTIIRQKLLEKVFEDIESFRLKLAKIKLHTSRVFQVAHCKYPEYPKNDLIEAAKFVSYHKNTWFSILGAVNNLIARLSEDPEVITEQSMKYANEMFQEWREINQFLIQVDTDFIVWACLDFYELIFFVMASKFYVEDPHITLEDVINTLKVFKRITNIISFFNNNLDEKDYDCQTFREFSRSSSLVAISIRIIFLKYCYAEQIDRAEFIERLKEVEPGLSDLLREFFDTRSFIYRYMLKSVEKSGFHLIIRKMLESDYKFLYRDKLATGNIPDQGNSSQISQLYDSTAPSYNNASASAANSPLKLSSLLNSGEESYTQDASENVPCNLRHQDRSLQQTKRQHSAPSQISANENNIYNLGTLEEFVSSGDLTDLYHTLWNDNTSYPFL
Summary of the method: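 Each ungapped eight-base word and its reverse complement, pooled, received an E-score from the Universal PBM Analysis Suite. Underlying scans, normalised with masliner, recorded fluorescent anti-GST bound to GST-tagged yeast transcription factors. These were applied at about 100-200 nM to universal all-10-mer Agilent arrays double-stranded by primer extension.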

| Sequence | PBM E-score |
| --- | --- |
| CATAGAGA | -0.158 |
| CCGGACAG | 0.338 |
| ACCACCGC | -0.0536 |
| CAATTACA | 0.0132 |
| AATGGCAA | -0.154 |
| AGACGCTA | -0.119 |
| CCCGCCTC | 0.12 |
| CCCGGAAG | 0.419 |
| ATGGCTCG | -0.0282 |
| CAGCATGC | 0.0261 |
| CGACAAGA | 0.0261 |
| CTCACTCA | -0.0809 |
| TGCGCGCA | 0.205 |
| ATCCTTCC | -0.0925 |
| ATAGGGAA | -0.0342 |
| GGCACTCA | -0.251 |
| CGCAAAGA | 0.00604 |
| ATTAATGC | -0.0462 |
| GAATGCAC | 0.195 |
| ACCCGCTC | 0.057 |
| ATGGATCG | 0.139 |
| GCTGCTCA | -0.154 |
| CACAAGAG | -0.042 |
| AGAACTAC | -0.099 |
| CACCGCTG | -0.151 |

| Sequence | PBM E-score |
| --- | --- |
| GAAGCCAA | -0.0743 |
| ACAAATGT | -0.0604 |
| CAGCAAGG | -0.131 |
| GAGGAAGA | 0.0527 |
| GTTCCATA | 0.0937 |
| CAGAATTA | 0.0375 |
| CAGTGGCA | -0.193 |
| AGGGATGA | -0.0804 |
| ATGAGTTA | -0.178 |
| ATACTAGA | 0.0401 |
| TTCCAAAA | -0.177 |
| CGCGGGTA | 0.363 |
| AACGACTG | -0.194 |
| AGCTGCAT | -0.169 |
| CACCTACG | -0.107 |
| AAATTTCC | 0.202 |
| AGTAGGAT | -0.147 |
| ACGTGTAT | -0.217 |
| AACACTAG | -0.0882 |
| ATACGGCA | 0.0009 |
| CGAAGTAA | 0.0812 |
| GCGATACA | -0.127 |
| ATGGCCCC | -0.0124 |
| ACATCTGA | -0.299 |
| ATATCAAT | 0.0499 |

| Sequence | PBM E-score |
| --- | --- |
| CCGCGCTA | 0.3 |
| ATCCTCTG | -0.0407 |
| AATTGCAT | 0.0305 |
| CTAGATAA | -0.209 |
| TGAAACAA | -0.00937 |
| TACGCAGA | -0.156 |
| AACCTCCG | 0.219 |
| CGTAAGAC | -0.21 |
| GCGTCCCA | -0.0521 |
| AAAGCCCT | -0.232 |
| TAGTATAA | -0.0373 |
| ATCTGGGG | -0.109 |
| ACTGTGCC | -0.117 |
| AAGATCCG | 0.252 |
| GGTTTAGA | -0.0817 |
| CTAACGAC | -0.311 |
| CGAGGCCC | 0.102 |
| GGACAACC | 0.0553 |
| ATCCATGC | 0.0353 |
| CCAACGTA | -0.334 |
| CCCTGAGA | -0.165 |
| CCAACCCC | -0.0805 |
| ACCATTAC | 0.056 |
| CAACGTGG | -0.135 |
| TGCACCCA | -0.12 |

| Sequence | PBM E-score |
| --- | --- |
| CGAAAGCA | 0.0422 |
| GACTTCTC | -0.0359 |
| CATTGTCA | -0.0357 |
| ATAGGGTC | -0.0192 |
| AGGTAGAC | -0.045 |
| CTCGCGTA | -0.143 |
| GATGTGGC | -0.115 |
| GTGTACCA | -0.273 |
| CCAGGACC | -0.0853 |
| ATTCACTA | 0.00985 |
| TATATCGA | 0.154 |
| GAGCGGAC | 0.0792 |
| CCTCCCTC | 0.0651 |
| GCAACTCC | 0.0673 |
| ATCAGATG | -0.287 |
| GAACCCAA | -0.118 |
| ATTTGACG | 0.0295 |
| GTATGGGA | -0.118 |
| GGATCTCA | 0.0621 |
| CGTGATAC | -0.0674 |
| AATGCGGC | 0.0245 |
| CGGTGGTA | -0.021 |
| GTAGGTCA | -0.107 |
| GAGTTGGA | -0.0627 |
| GACATCCA | -0.199 |

| Sequence | PBM E-score |
| --- | --- |
| GCCAATCA | -0.245 |
| GAGGCAGC | -0.0658 |
| CGCTAAGC | 0.00063 |
| AGGACTGA | -0.137 |
| AGTCATTA | -0.37 |
| ACAGAGAC | 0.0215 |
| ACACTCGC | 0.126 |
| GAAATTGC | -0.00669 |
| GGTTACAC | -0.153 |
| AAACCACG | 0.00715 |
| CCCGAGAC | 0.282 |
| ACCTGCAC | -0.0228 |
| CATATCGC | 0.108 |
| GGGGGAAC | -0.165 |
| TACAGGCA | -0.134 |
| GTGTACAC | -0.23 |
| CGTGTTAC | -0.0684 |
| AGGGCATA | -0.105 |
| GTGAGTAA | -0.0981 |
| ATTAAATC | 0.152 |
| GTATAATA | 0.174 |
| ATTGATTA | 0.167 |
| ACGTCGCC | -0.2 |
| GTCCTAAA | 0.0163 |
| ACCGGGGG | 0.0642 |

| Sequence | PBM E-score |
| --- | --- |
| ACACGCTA | -0.0503 |
| GCGACTTA | -0.101 |
| AGTCATGA | 0.053 |
| CTCCGTAC | 0.162 |
| CGATAAAG | -0.147 |
| GACGTAGA | -0.283 |
| CAATGTAG | -0.0561 |
| AGGTCACC | -0.183 |
| AGCCAGAG | -0.107 |
| AGATCATG | -0.148 |
| ACGCCGGG | 0.251 |
| ACCCAGCT | -0.0142 |
| CCTGTCTC | -0.0319 |
| AAGTGCAC | 0.0238 |
| AATAATAC | 0.032 |
| CAGTACGA | -0.116 |
| CTAGATTA | -0.108 |
| ACCGAAAC | 0.147 |
| TCCAACGA | -0.242 |
| CTTAGGGC | -0.133 |
| ATTGTGCC | -0.0525 |
| CAAAGTCG | -0.148 |
| AGTGGTAG | -0.171 |
| GCGCGAAC | 0.148 |
| ATGGTAGG | -0.137 |

| Sequence | PBM E-score |
| --- | --- |
| AGTAGGGC | -0.0969 |
| CCACCAGG | -0.109 |
| ACCCTTTG | -0.0697 |
| CGTTTTAC | -0.0906 |
| AACGGGAT | 0.364 |
| CTACGCCC | -0.12 |
| CTATAAAC | -0.0124 |
| TAGTTCGA | -0.0152 |
| CACCCTAA | -0.0827 |
| GCGCTCAA | -0.166 |
| ATCACTGC | 0.101 |
| CGCCTCCA | -0.00709 |
| GAACGATC | 0.129 |
| TCACTGGA | -0.042 |
| CCTCCCGA | 0.103 |
| CTACCCGC | 0.144 |
| GTCTGTAA | 0.106 |
| GGATGGAC | 0.0752 |
| CATTCTGA | -0.0621 |
| ACAGTTCA | -0.0281 |
| GCGGACGC | 0.0542 |
| CCCATTGC | -0.0113 |
| ACAGGTAC | -0.14 |
| TATCAGGA | -0.0558 |
| CAAACATC | 0.0461 |

| Sequence | PBM E-score |
| --- | --- |
| AACGCGCC | 0.107 |
| AAATAGTT | 0.0906 |
| ATGGTAAG | -0.102 |
| GAAATTCC | 0.261 |
| ACCTACAA | -0.0899 |
| CTCGACTC | -0.113 |
| AGAACGGG | 0.16 |
| CTGAAAAA | -0.0962 |
| CCTTATTC | -0.28 |
| ACAACGTA | -0.125 |
| ACACCGCC | 0.0577 |
| GATCACAC | -0.0327 |
| AGGGTTTC | -0.0822 |
| CGGTTCCA | 0.248 |
| GCTGTCAC | -0.211 |
| CACTCTAG | -0.172 |
| CCCGGAGG | 0.165 |
| CTATCTAA | 0.00128 |
| GCAGGCAA | -0.083 |
| AGTCCAGG | -0.174 |
| CAACCGCG | 0.369 |
| AACAAGAT | 0.106 |
| CGATGCAC | -0.186 |
| AAATCAAT | 0.00895 |
| CGGCCCCG | 0.224 |

| Sequence | PBM E-score |
| --- | --- |
| AGGGTTAC | -0.224 |
| ACGGCCAG | 0.0353 |
| AAAGTCAA | -0.0567 |
| AGTTAAAC | -0.181 |
| AACCATGC | 0.206 |
| ACTTAGGC | -0.206 |
| ACCCCGTC | 0.203 |
| CTGCCAAC | -0.115 |
| GGCCCAAC | -0.0391 |
| GCTCTGAC | -0.188 |
| ACCACATG | -0.0386 |
| CCGGAACA | 0.471 |
| TAAATGAA | 0.00383 |
| GTGGTTAA | 0.0263 |
| GCGGGGAC | 0.149 |
| CGTCGTGC | 0.0795 |
| AGGTATAA | -0.0545 |
| AATGTAAA | 0.0488 |
| ACTAGGGG | -0.0188 |
